Molecules are shown by their SMILES. Among all 310,000 compounds or so, about 14,000 (4.5%) showed an effect of 50% or more. The effect is printed as a negative number. The list shows a part of the results.
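Also: peak tail current of the secondary pulse compared with the same well before compound.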

Sequence of human ether-à-go-go-related gene (hERG) potassium channel (Q12809 whole entry, looked up): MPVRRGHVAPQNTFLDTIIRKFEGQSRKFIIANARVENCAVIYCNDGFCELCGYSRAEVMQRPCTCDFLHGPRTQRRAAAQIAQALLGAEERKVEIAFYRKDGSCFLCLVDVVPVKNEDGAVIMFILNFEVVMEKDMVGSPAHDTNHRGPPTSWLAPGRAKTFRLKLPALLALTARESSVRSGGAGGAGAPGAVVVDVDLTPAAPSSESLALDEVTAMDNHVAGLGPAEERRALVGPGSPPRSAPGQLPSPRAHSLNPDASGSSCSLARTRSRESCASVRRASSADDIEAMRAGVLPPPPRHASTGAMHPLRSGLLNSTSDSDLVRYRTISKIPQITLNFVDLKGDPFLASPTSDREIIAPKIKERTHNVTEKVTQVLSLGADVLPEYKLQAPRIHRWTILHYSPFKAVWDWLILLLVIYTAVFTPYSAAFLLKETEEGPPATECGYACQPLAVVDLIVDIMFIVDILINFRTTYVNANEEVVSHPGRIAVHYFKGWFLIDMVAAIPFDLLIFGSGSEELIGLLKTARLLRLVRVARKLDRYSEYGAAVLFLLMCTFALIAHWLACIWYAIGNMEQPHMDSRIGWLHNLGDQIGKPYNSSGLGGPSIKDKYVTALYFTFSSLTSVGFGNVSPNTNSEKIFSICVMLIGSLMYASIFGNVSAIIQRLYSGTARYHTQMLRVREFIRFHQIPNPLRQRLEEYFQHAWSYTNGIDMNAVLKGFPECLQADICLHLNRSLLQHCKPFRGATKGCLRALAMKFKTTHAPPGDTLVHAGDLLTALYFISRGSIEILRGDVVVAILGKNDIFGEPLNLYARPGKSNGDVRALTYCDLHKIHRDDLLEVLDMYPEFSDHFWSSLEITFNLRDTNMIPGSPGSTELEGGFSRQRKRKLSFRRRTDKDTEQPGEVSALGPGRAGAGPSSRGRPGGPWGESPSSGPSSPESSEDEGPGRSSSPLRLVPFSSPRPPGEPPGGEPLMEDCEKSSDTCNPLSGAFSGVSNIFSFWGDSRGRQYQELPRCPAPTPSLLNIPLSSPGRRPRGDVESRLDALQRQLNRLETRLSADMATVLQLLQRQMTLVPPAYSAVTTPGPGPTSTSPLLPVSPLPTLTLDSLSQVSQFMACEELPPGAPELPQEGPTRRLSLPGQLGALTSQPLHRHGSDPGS

This experiment addresses human ether-à-go-go-related gene (hERG) potassium channel (human, UniProt Q12809). Description: primary screen, population patch clamp on CHO cells stably expressing hERG.
For the compound `COc1ccc(NC(=O)c2cc(-c3cccs3)on2)cc1OC`, the “hERG current change (%, negative = inhibition) at 10uM” value amounted to 6.67%.
Then `Fc1cccc(COc2ccccc2C(=S)N2CCCC2)c1`, with 6.27%.
Then `CCOc1ccc(S(=O)(=O)Nc2ccc(C(=O)NN)cc2)cc1`, with 3.92%; and `Cc1ccc2c(c1)N(CC(=O)NCCCN1CCOCC1)C(=O)c1cccnc1O2`, with 0.529%; and `c1ccc(CSCc2ccccc2)cc1`, with 0.734%.
Then `N=C1C(c2nc3ccccc3c(=O)[nH]2)=C(O)CN1CCO`, with 16.3%; and `COc1ccc(NC(=O)N2CCCC2C(=O)NC2CCCC2)cc1` (centres unmarked), with 17.2%; and `O=C(NNc1nc2c(F)cccc2s1)c1cc(=O)c2ccccc2o1`, with 12.1%.
For `COc1cccc(-n2c(SCC(=O)N3CCc4ccccc43)nnc2-c2c[nH]c3ccccc23)c1`, the “hERG current change (%, negative = inhibition) at 10uM” value is given as 6.16%.
Take `C/C(=N\NC(=O)c1ccccc1O)c1ccc(NC(=O)c2ccccc2)cc1`: the “hERG current change (%, negative = inhibition) at 10uM” value came to 15.3%.
Then `CN(C)c1nc(Oc2ccc(OCCOc3ccccc3)nn2)nc(N(C)C)n1`, with -5.51%.
Turning to `COC(=O)c1oc2ccc(OC)cc2c1N`, the “hERG current change (%, negative = inhibition) at 10uM” value was 5.36%.
Then `CCOc1ccc(NS(=O)(=O)c2ccc(C(=O)N3CCCC(C)C3)cc2)cc1` (centres unmarked), with -2.67%; and `S=C(NCCC(c1ccccc1)c1ccccc1)Nc1ccccc1Cl`, with 11%.
Then `CN(CCC(=O)c1ccccc1)CCC(=O)c1ccccc1`, with -18%; and `NC(=O)c1cc(C(N)=O)nc(Cl)n1`, with 16.1%.
Then `CCN(CCn1cccn1)C(=O)CC1C(=O)NCCN1Cc1cc(OC)cc(OC)c1` (centres unmarked), with 20.7%.
Turning to `O=C(COc1ccc(S(=O)(=O)N2CCOCC2)cc1)NCc1ccccc1`, the “hERG current change (%, negative = inhibition) at 10uM” value was found to be 4.69%.
On to `COc1ccc(-n2nnnc2SCC(=O)N2CCCc3ccccc32)cc1OC`, for which the “hERG current change (%, negative = inhibition) at 10uM” value is given as -13.4%.
Then `CN1CCN(c2ccc([N+](=O)[O-])c(N)c2)CC1`, with -26.7%; and `O=C(NCCCN1CCOCC1)c1cccc(NC(=O)c2ccccc2)c1`, with 8.41%; and `COC(=O)c1cc(S(=O)(=O)N2CCCCC2)c[nH]1`, with 5.57%.
Then `Cc1ccc(Nc2c(-c3ccc(C)o3)nc3ncccn23)cc1`, with -15.5%; and `CC(=O)C1=C(O)C=C(c2ccco2)CC1c1ccco1` (centres unmarked), with -0.921%; and `O=c1nc(SCc2ccccc2Cl)nc(-c2ccc(Cl)cc2)[nH]1`, with 25.2%.
Then `CC(=O)c1ccc(S(=O)(=O)N2CCN(C(=O)c3ccc(-n4nc(C)c(Cl)c4C)cc3)CC2)cc1`, with -29.2%.
With `COc1ccc(C2=NCC(=S)Nc3ccc(Cl)cc32)cc1OC`, the “hERG current change (%, negative = inhibition) at 10uM” value is -0.628%.
`O=C(C1CCC(CNc2c(N3CCCCC3)c(=O)c2=O)CC1)N1CCCCC1` (centres unmarked): the “hERG current change (%, negative = inhibition) at 10uM” value is given as 10.2%.
Then `COc1ccccc1NS(=O)(=O)c1cc(NC(=O)CCC(=O)c2cccs2)ccc1Cl`, with -13.6%.
As for `CS(=O)(=O)c1ccccc1-c1nnc(NC(=O)C2=COCCO2)o1`, the “hERG current change (%, negative = inhibition) at 10uM” value worked out at 4.66%.
Then `CCNc1nc(NCC)nc(Nn2cnnc2)n1`, with -0.371%; and `Cc1ccc(N/C=C(\C#N)S(=O)(=O)c2ccccc2)cc1`, with 14.3%.
Then `CCOCCCNS(=O)(=O)c1ccc(NC(=O)c2ccccc2)cc1`, with 9.96%; and `CCOc1ccccc1OCC(=O)O`, with 13.2%; and `CCCCNCCCOc1cccc(Cl)c1`, with -2.83%.
For the compound `COc1cccc(NC(=O)CCCOc2cc(=O)n(C)c3ccccc23)c1`, the “hERG current change (%, negative = inhibition) at 10uM” value was found to be 12.6%.
In the case of `CCCOc1ccc(N2C(=O)CC(NCCNc3ccc([N+](=O)[O-])cn3)C2=O)cc1` (centres unmarked), the “hERG current change (%, negative = inhibition) at 10uM” value was -72.5%.
Then `COc1ccccc1-n1cnc2sc(C)c(C)c2c1=O`, with 5.71%; and `CCOC(=O)C(NC(=O)CC)(Nc1ccccc1)C(F)(F)F` (centres unmarked), with 21.9%; and `COC(=O)C1C/C(=N\NS(=O)(=O)c2ccc(C)cc2)c2ccccc2C1` (centres unmarked), with -10.6%.
Turning to `CC(=O)Nc1ccc(NC(=O)CN(C)S(=O)(=O)c2ccc3nc(C)sc3c2)cc1`, the “hERG current change (%, negative = inhibition) at 10uM” value stood at 25.7%.
Then `CCOC(=O)Cn1nc(-c2ccc(Cl)cc2)ccc1=O`, with -18.9%.
Then `Cc1noc(C)c1COc1ccc(C(=O)N2CCN(c3ccccn3)CC2)cc1`, with -31.8%; and `CN1CCc2c(sc3nc(SCC(=O)N4CCOCC4)nc(N)c23)C1`, with 1.89%.
Then `CCOC(=O)CCCSc1nc2sc3c(c2c(=O)[nH]1)CCC3`, with 14.4%.
For `Cc1ccc2[nH]c(=O)c(CN(Cc3ccc4c(c3)OCO4)Cc3nnnn3C3CCCC3)cc2c1`, the “hERG current change (%, negative = inhibition) at 10uM” value turned out to be 4.66%.
As to `Cc1ccc(Sc2nnc(-c3ccccc3)cc2C#N)cc1`, the “hERG current change (%, negative = inhibition) at 10uM” value is given as 4.01%.
Then `CC12CCC(c3n[nH]c(=S)nc31)C2(C)C` (centres unmarked), with 18.7%.
On to `O=C(Nc1ccccc1C(=O)N1CCCCC1)c1ccco1`, for which the “hERG current change (%, negative = inhibition) at 10uM” value worked out at 18.8%.
Then `O=C(COC(=O)c1ccccc1O)Nc1cccnc1Cl`, with 8.55%; and `CCCOc1ccc(N2C(=O)CC(SC(=N)N3N=C(c4ccccc4)CC3c3ccccc3)C2=O)cc1` (centres unmarked), with 16.6%; and `Cc1c(Br)c([N+](=O)[O-])nn1CC(=O)Nc1ccc2nc3n(c(=O)c2c1)CCCC3`, with 0.566%.
`COc1cc(CNn2cn[nH]c2=S)cc(Br)c1OCc1ccccc1F`: the “hERG current change (%, negative = inhibition) at 10uM” value amounted to 6.75%.
As to `Cc1ccccc1CN1CCN(C2CCC2)CC1CCO` (centres unmarked), the “hERG current change (%, negative = inhibition) at 10uM” value is on record as 9.75%.
Regarding `COc1cc(NC(=O)c2ccccc2)c(OC)cc1NC(=O)CN1CCN(c2ccccn2)CC1`, the “hERG current change (%, negative = inhibition) at 10uM” value is listed as -28.3%.
Then `O=C1N(c2ccccc2C(F)(F)F)OC1(Cc1ccccc1)c1ccccc1` (centres unmarked), with 21.6%; and `O=C(O)C1C2C=CC(C2)C1C(=O)N1CCOCC1` (centres unmarked), with -0.616%; and `Cn1c(Cn2c(=O)sc3ccccc32)nnc1SCC(=O)N1CCN(c2ccccc2)CC1`, with -49.5%.
Then `Oc1ccc(/C=N/N2CCOCC2)c(O)c1O`, with 50.5%.
`Cc1ccc(SCCNC(=O)/C=C/c2cccc([N+](=O)[O-])c2)cc1`: the “hERG current change (%, negative = inhibition) at 10uM” value was -31.6%.
Turning to `O=C(c1ccco1)N1CCCC(c2nc3c(nnn3Cc3c(Cl)cccc3Cl)c(=O)[nH]2)C1` (centres unmarked), the “hERG current change (%, negative = inhibition) at 10uM” value is on record as -40.2%.
With `CN1C(=S)SC(/[N+]([O-])=C\c2ccco2)C1(C)C` (centres unmarked), the “hERG current change (%, negative = inhibition) at 10uM” value was found to be 8.23%.
Then `Cl.c1ccc(COc2ccc(CNCc3cccs3)cc2)cc1`, with -12.7%; and `Cc1ccc(NC(=O)C(c2ccccc2)N(C)C)cc1Cl` (centres unmarked), with -19.5%.
On to `CCCC(=O)Nc1c2c(nn1-c1ccccc1)CSC2`, for which the “hERG current change (%, negative = inhibition) at 10uM” value is reported as 1.81%.
Then `Cc1ccc(-c2nc(N)n(C(=O)Cc3ccccc3)n2)cc1`, with 29%; and `CCc1c(C)nc(SCC(=O)N2CCN(c3ccccc3)CC2)[nH]c1=O`, with -6.86%; and `Cn1nnc2cc(C(=O)NCc3ccc4c(c3)OCO4)ccc21`, with 16.9%.
In the case of `COc1cc(Br)c(CCNC(=O)c2ccco2)cc1OC`, the “hERG current change (%, negative = inhibition) at 10uM” value worked out at 8.39%.
With `C/C(=N\NC(=O)CSc1nc2ccccc2o1)c1ccc(O)cc1`, the “hERG current change (%, negative = inhibition) at 10uM” value came out at 6.77%.
Then `O=C(CC1N=C2c3ccccc3N=C(SCc3ccccc3Cl)N2C1=O)NCc1ccco1` (centres unmarked), with -47%; and `CC(C)N1C(=O)S/C(=C/c2ccccc2OCc2ccc(C(=O)O)cc2)C1=O`, with -6.06%.
Then `NS(=O)(=O)c1ccc(Cl)cc1[N+](=O)[O-]`, with 22%; and `CC(=N)C1=C(O)CC(C)(C)CC1=O`, with 1.84%; and `COc1cccc(C2C(C#N)=C(N)N(c3ncn[nH]3)C3=C2C(=O)CCC3)c1` (centres unmarked), with 10.6%.
As to `C=CCNC(=S)N(C1CCCCC1)C1CCCCC1`, the “hERG current change (%, negative = inhibition) at 10uM” value was 18.7%.
Then `COc1ccc(-c2cn3c(C)c(C(=O)Nc4cccc(C)n4)sc3n2)cc1`, with 1.23%; and `CCOC(=O)C1CCN(S(=O)(=O)c2ccc(C)cc2)CC1`, with 3.36%; and `NC(N)=NS(=O)(=O)c1ccc(N)cc1`, with -0.264%.
Then `CC1(O)C(=O)C=C2C=C(c3ccc(C#N)cc3)OC=C2C1=O` (centres unmarked), with 20.1%; and `Cc1nc(/C(N)=N/OC(=O)c2cccc(Cl)c2)c(C(F)(F)F)o1`, with 12.2%; and `COc1ccc(-c2cc(C(F)(F)F)n3nc(C(=O)N4CCCC4)cc3n2)cc1`, with -12.5%.
Then `COC(=O)C1=C(C)OC(N)=C(C#N)C1c1cc2cc(C)ccc2nc1Cl` (centres unmarked), with 25.5%.
For `Cc1c(C(=O)OCc2nc3ccsc3c(=O)[nH]2)oc2ccccc12`, the “hERG current change (%, negative = inhibition) at 10uM” value is 3.33%.
Then `Cc1ccc(-n2cc(CN3CCC(CO)(Cc4cccc(C(F)(F)F)c4)CC3)cn2)cc1`, with -76%.
Then `Cc1cc(C)c(C(=O)CSc2nc3ccccc3c(=O)[nH]2)cc1C`, with 32.5%; and `O=C(CCCc1ccccc1)NCCc1ccccc1`, with 16.8%; and `CN(CCC#N)C(=O)COC(=O)c1ccc2c(=O)n3c(nc2c1)CCC3`, with 35%.
`CN(CC(=O)Nc1cccc(F)c1)C(=O)c1ccccc1Sc1ccccc1C#N`: the “hERG current change (%, negative = inhibition) at 10uM” value is recorded as -18.5%.
Then `C/C=C/C(=O)N1CC2(CC(c3cccc(NC(=O)COc4ccc(Cl)cc4)c3)=NO2)C[C@@H]1C(N)=O` (some centres unmarked), with -41.4%; and `CCOC(=O)c1[nH]c(C(=O)O)c(CCC(=O)OC)c1C`, with 7.09%; and `O=C(COC(=O)CCc1c[nH]c2ccccc12)Nc1cc([N+](=O)[O-])ccc1Cl`, with 9.61%.

The values are drawn from publication PMC4336329 (PLoS ONE, 2015).
